Laboratory results published in the supplement of paper PMC10600219.
Counter-ions that a name gives are not always drawn. Whole data set: some 2,800 compounds, median “cell viability relative to vehicle” near 0.98, cut for the lowest 2% near 0.45. This is one part of the list.

test system: NCI-H2228 alectinib-DTP; test: cell viability relative to vehicle (fraction of vehicle); NCI-H2228 is an ALK-positive lung cancer line and DTP means drug-tolerant persister; higher = less growth inhibition; conditions: 100 nM; treatment time 6 days
How it was run: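 Each value is viability relative to vehicle-treated cells, measured as ATP with the CellTiter-Glo 3D Cell Viability Assay. Parental NCI-H2228 cells and drug-tolerant persisters (1000 nM targeted drug, 13 days) in 384-well plates received the 3114-agent TargetMol anti-cancer compound library at 100 nM, or DMSO, and were read 6 days later.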

| SMILES | cell viability |
| --- | --- |
| O=C(NO)c1cnc(NC2(c3ccccc3)CC2)nc1 | 1.01 |
| CCN(CC)C(=O)c1cccc(C)c1 [N,N-Diethyl-m-toluamide] | 1 |
| O=c1[nH]c(=S)[nH]c(-c2ccccc2)c1Cc1c(O)ccc2ccccc12 [Cambinol] | 1.04 |
| CCN(CC)C(=O)c1cccnc1 [Nikethamide] | 1.08 |
| CC(C)(C)n1nc(Cc2cccc3ccccc23)c2c(N)ncnc21 | 0.853 |
| COc1ccc(C(=C2C(=O)Nc3ccccc32)c2ccc(OC)cc2)cc1 | 0.929 |
| CCCN(CCC)S(=O)(=O)c1ccc(C(=O)O)cc1 [Probenecid] | 1.07 |
| C[C@]12CC[C@@H]3c4ccc(O)cc4CC[C@H]3[C@@H]1CC[C@@H]2O [Estradiol] | 1.1 |
| CCNC(=O)c1[nH]nc(-c2cc(Cl)c(O)cc2O)c1-c1ccc(OC)cc1 | 1.14 |
| CNC(=O)CNc1cnc2ccc(-c3ccc(OC)c(OC)c3)cc2n1 | 1.08 |
| C[C@H](NC(=O)/C(C#N)=C/c1cccc(Br)n1)c1ccccc1 | 1.04 |
| C[C@@H]1CC[C@@]2(NC1)O[C@H]1C[C@H]3[C@@H]4CC=C5C[C@@H](O[C@@H]6O[C@H](CO)[C@H](O)[C@H](O[C@@H]7O[C@H](CO)[C@@H](O)[C@H](O)[C@H]7O)[C@H]6O[C@@H]6O[C@@H](C)[C@H](O)[C@@H](O)[C@H]6O)CC[C@]5(C)[C@H]4CC[C@]3(C)[C@H]1[C@@H]2C [Solasonine] | 1.2 |
| CCN(CC)CC(O)CNc1ccc(NCC2CO2)c2c1C(=O)c1ccccc1C2=O (stereo unspecified) | 0.831 |
| c1ccc(-c2[nH]ncc2-c2ccnc3ccccc23)nc1 | 1.17 |
| N[C@@H](CCC(=O)N[C@@H](CS)C(=O)NCC(=O)O)C(=O)O [Glutathione] | 1.12 |
| C#Cc1cccc(Nc2ncnc3cc4c(cc23)OCCOCCOCCO4)c1 [Icotinib] | 0.96 |
| C=CC(=O)Nc1cc(Nc2nccc(-c3cn(C)c4ccccc34)n2)c(OC)cc1N(C)CCN(C)C [Osimertinib] | 0.742 |
| C=CC(=O)Nc1cc(Nc2nccc(-c3cn(C)c4ccccc34)n2)c(OC)cc1N(C)CCN(C)C [Osimertinib mesylate] | 0.858 |
| Cc1ccc(NCCCc2ccccc2)c(N)c1 | 1.03 |
| CCc1c(C)[nH]c2c1C(=O)C(CN1CCOCC1)CC2 (stereo unspecified) [Molindone hydrochloride] | 1.14 |
| CC(C)(NS(=O)(=O)c1ccc2c(Cl)cnc(N=C(N)N)c2c1)C(=O)O | 1.04 |
| O=[N+]([O-])c1cncn1CCN1CCOCC1 [Nimorazole] | 0.869 |
| C=CC(=O)Nc1cc(Nc2nccc(-c3c[nH]c4ccccc34)n2)c(OC)cc1N(C)CCN(C)C | 0.541 |
| O=C(O)c1ccc(-c2c[nH]c3ncc(-c4ccccc4)cc23)cc1C1CCCC1 | 1.04 |
| Cc1ncc(CO)c(CO)c1O [Pyridoxine] | 1.13 |
| Cc1ncc(CO)c(CO)c1O [Metadoxine] | 0.888 |

| SMILES | cell viability |
| --- | --- |
| O=C(N1CCCC1)n1ccnn1 | 0.961 |
| Cc1cc(Nc2ncc3c(n2)N(C)C(=O)N(c2cc(NC(=O)c4cccc(C(F)(F)F)c4)ccc2C)C3)n(C)n1 [Pluripotin] | 0.301 |
| N=C(N)NS(=O)(=O)c1ccc(N)cc1 [Sulfaguanidine] | 1.06 |
| CSCC1CN(/N=C/c2ccc([N+](=O)[O-])o2)C(=O)O1 (stereo unspecified) [Nifuratel] | 0.881 |
| O=C(Nc1nc2cccc(-c3ccc(CN4CCS(=O)(=O)CC4)cc3)n2n1)C1CC1 [Filgotinib] | 1.03 |
| COc1ccc2ccc(=O)oc2c1CC=C(C)C [Osthole] | 0.976 |
| CNS(=O)(=O)CCc1ccc2[nH]cc(C3CCN(C)CC3)c2c1 [Naratriptan] | 1.04 |
| CC(=O)Oc1ccccc1C(=O)O [Aspirin] | 1.15 |
| Nc1nc(NC2CC2)cc(-c2cccc(Cl)c2Cl)n1 | 0.955 |
| CC(C)=CC[C@@H](O)C1=CC(=O)c2c(O)ccc(O)c2C1=O (racemic) [(±)-Shikonin] | 1.02 |
| CC(C)=CCC[C@](C)(O[C@@H]1O[C@H](CO)[C@@H](O)[C@H](O)[C@H]1O)[C@H]1CC[C@]2(C)[C@@H]1[C@H](O)C[C@@H]1[C@@]3(C)CC[C@H](O)C(C)(C)[C@@H]3[C@@H](O[C@@H]3O[C@H](CO)[C@@H](O)[C@H](O)[C@H]3O[C@@H]3O[C@@H](C)[C@H](O)[C@@H](O)[C@H]3O)C[C@]12C [Ginsenoside Re] | 0.852 |
| CC1=C(/C=C/C(C)=C/C=C/C(C)=C/C(=O)O)C(C)(C)CCC1 [Tretinoin] | 0.87 |
| C[C@]12CC[C@H](O)CC1=CC[C@@H]1[C@@H]2CC[C@]2(C)C(n3cnc4ccccc43)=CC[C@@H]12 [Galeterone] | 0.91 |
| C[C@H](NP(=O)(OC[C@H]1O[C@@H](n2ccc(N)nc2=O)C(F)(F)[C@@H]1O)Oc1ccccc1)C(=O)OCc1ccccc1 (stereo partly specified) [Acelarin] | 0.775 |
| O=C(NO)c1cccc(C(=O)NCCc2ccccc2)c1 | 1.01 |
| Nc1ccc(/C=C/C(=O)NCc2cc3cc(-c4ccc(C(=O)N5CCC(F)(F)CC5)cc4)cc(-c4ccc(F)cc4)c3o2)cn1 | 1.25 |
| N=C(N)Nc1ccc(C(=O)Oc2ccc3cc(C(=N)N)ccc3c2)cc1 [Nafamostat mesylate] | 0.929 |
| CC(C)n1nc(-c2ccc3oc(N)nc3c2)c2c(N)ncnc21 | 0.37 |
| CN1C[C@@H]2C[C@H]1CN2c1cc2c(cc1F)c(=O)c(C(=O)O)cn2C1CC1 [Danofloxacin mesylate] | 0.947 |
| N[C@@H](Cc1c[nH]c2ccc(O)cc12)C(=O)O [L-5-Hydroxytryptophan] | 1.05 |
| CC#CC(=O)N1CCC[C@H]1c1nc(-c2ccc(C(=O)Nc3ccccn3)cc2)c2c(N)nccn12 [Acalabrutinib] | 1.05 |
| CC(=O)Nc1nc2c(Oc3cc(-c4ccc(C(F)(F)F)cc4)ncn3)cccc2s1 | 1.12 |
| N#CSc1cc(SC#N)c(N)nc1N | 0.783 |
| CC(=O)O[C@]1(C(C)=O)CC[C@H]2[C@@H]3CCC4=CC(=O)CCC4=C3[C@@H](c3ccc(N(C)C)cc3)C[C@@]21C [Ulipristal acetate] | 0.997 |
| CCCCc1nc2cc(/C=C/C(=O)NO)ccc2n1CCN(CC)CC [Pracinostat] | 0.977 |
